The supplement of paper PMC4967469
IC50 is the fitted dose that halves viability relative to control wells, and lower means more sensitive; fits outside the tested doses are given as limits. The AUC spans the tested range (256-fold, ending at the top dose) of the same fit; the more sensitive the line, the further below 1. For some of these results: The top dose, if marked as inferred, comes from the curve model; the source does not state it. For some of these results: An entry number marks a drug with two screens in the source, which often give different values.

Tests used:
Assay in all cases: Viability of human cancer cell lines after 72 h of drug (GDSC screen)
Epothilone B = compound: C/C(=C\c1csc(C)n1)[C@@H]1C[C@@H]2O[C@]2(C)CCC[C@H](C)[C@H](O)[C@@H](C)C(=O)C(C)(C)[C@@H](O)CC(=O)O1 [Epothilone B]; conditions: top dose 0.032 µM; top dose inferred
Experimental: (§1)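 Human cancer cell lines in 384-well plates, medium with 10% serum, drug for 72 h over a 256-fold dose range (nine 2-fold or five 4-fold steps up to the top dose). Adherent lines were fixed and stained with the nucleic acid dye Syto60, suspension lines read with resazurin; signal relative to control wells, capped at 0 and 100%. One two-parameter sigmoid per drug and line, fitted in a mixed model over all curves with the slope shared within a line.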

Y-39983 = compound: C[C@@H](N)c1ccc(C(=O)Nc2ccnc3[nH]ccc23)cc1 [Y-39983]; conditions: top dose 20 µM; top dose inferred
Experimental: as §1

PLX4720 = compound: CCCS(=O)(=O)Nc1ccc(F)c(C(=O)c2c[nH]c3ncc(Cl)cc23)c1F [PLX4720]; conditions: top dose 10 µM
Experimental: as §1

PHA-793887 = compound: CC(C)CC(=O)Nc1n[nH]c2c1CN(C(=O)C1CCN(C)CC1)C2(C)C [PHA-793887]; conditions: top dose 10.24 µM
Experimental: as §1

TPCA-1 = compound: NC(=O)Nc1sc(-c2ccc(F)cc2)cc1C(N)=O [TPCA-1]; conditions: top dose 20 µM
Experimental: as §1

[1] = screen: GDSC drug entry 1371, top dose inferred

Row | Cell Line | AUC (Epothilone B) | IC50 (Epothilone B) [µM] | AUC (Y-39983) | IC50 (Y-39983) [µM] | AUC (PLX4720; screen: GDSC drug entry 1036) | IC50 (PLX4720; screen: GDSC drug entry 1036) [µM] | AUC (PLX4720; [1]) | IC50 (PLX4720; [1]) [µM] | AUC (PHA-793887) | IC50 (PHA-793887) [µM] | AUC (TPCA-1) | IC50 (TPCA-1) [µM]
1 | CAL-120 (breast, adherent) | 0.744 | 0.0125 | 0.853 | > 20 | 0.928 | > 10 | 0.929 | > 10 | 0.95 | > 10.2 | 0.77 | 9.87
2 | CAMA-1 (breast, adherent) | 0.788 | 0.0181 | 0.97 | > 20 | – | – | 0.978 | > 10 | 0.909 | > 10.2 | 0.968 | > 20
3 | CAPAN-1 (pancreas, adherent) | 0.619 | 0.00443 | 0.985 | > 20 | 0.987 | > 10 | 0.985 | > 10 | 0.752 | 3.74 | 0.903 | > 20
4 | CCF-STTG1 (glioma, adherent) | 0.665 | 0.00578 | 0.965 | > 20 | 0.988 | > 10 | 0.987 | > 10 | 0.934 | > 10.2 | 0.886 | > 20
5 | CCK-81 (large intestine, adherent) | 0.528 | 0.00237 | 0.943 | > 20 | 0.99 | > 10 | 0.988 | > 10 | 0.97 | > 10.2 | 0.845 | 13.2
6 | CHL-1 (melanoma, adherent) | 0.354 | 0.000807 | 0.944 | > 20 | 0.843 | 6.49 | 0.959 | > 10 | 0.834 | 6.14 | 0.483 | 1.13
7 | CHP-212 (neuroblastoma, adherent) | 0.595 | 0.00357 | 0.978 | > 20 | 0.988 | > 10 | 0.987 | > 10 | 0.988 | > 10.2 | 0.977 | > 20
8 | CHSA0011 (chondrosarcoma, adherent) | 0.978 | > 0.032 | 0.975 | > 20 | 0.965 | > 10 | 0.95 | > 10 | 0.926 | > 10.2 | 0.9 | > 20
9 | CHSA0108 (chondrosarcoma, adherent) | 0.927 | > 0.032 | 0.975 | > 20 | 0.95 | > 10 | 0.959 | > 10 | 0.818 | 6.96 | 0.798 | 11.2
10 | CHSA8926 (chondrosarcoma, adherent) | 0.943 | > 0.032 | 0.456 | 0.903 | 0.932 | > 10 | 0.825 | 9.7 | 0.975 | > 10.2 | 0.954 | > 20
11 | COLO-205 (large intestine, suspension) | 0.344 | 0.000745 | 0.935 | > 20 | 0.319 | 0.197 | 0.771 | 3.79 | 0.723 | 2.71 | 0.796 | 9.22
12 | COLO-678 (large intestine, semi-adherent) | 0.977 | > 0.032 | 0.979 | > 20 | 0.985 | > 10 | 0.983 | > 10 | 0.945 | > 10.2 | 0.975 | > 20
13 | COLO-679 (melanoma, adherent) | 0.309 | 0.000543 | 0.969 | > 20 | 0.589 | 1.13 | 0.543 | 0.832 | 0.759 | 3.97 | 0.933 | > 20
14 | COLO-680N (oesophagus, adherent) | 0.688 | 0.00748 | 0.981 | > 20 | 0.986 | > 10 | 0.985 | > 10 | 0.906 | > 10.2 | 0.981 | > 20
15 | COLO-783 (melanoma, adherent) | 0.99 | > 0.032 | 0.99 | > 20 | 0.838 | 6.4 | 0.78 | 3.95 | 0.987 | > 10.2 | 0.968 | > 20
16 | COLO-792 (melanoma, adherent) | 0.963 | > 0.032 | 0.956 | > 20 | – | – | 0.985 | > 10 | 0.904 | > 10.2 | 0.979 | > 20
17 | COR-L23 (large cell lung carcinoma, adherent) | 0.42 | 0.00121 | 0.915 | > 20 | 0.936 | > 10 | 0.966 | > 10 | 0.542 | 0.83 | 0.831 | 12.2
18 | COR-L105 (lung adenocarcinoma, adherent) | 0.693 | 0.00795 | 0.822 | 15.3 | – | – | 0.969 | > 10 | 0.817 | 7.42 | 0.559 | 1.88
19 | CP50-MEL-B (melanoma, adherent) | 0.804 | 0.0158 | 0.986 | > 20 | 0.393 | 0.318 | 0.606 | 1.21 | 0.988 | > 10.2 | 0.764 | 7.19
20 | CS1 (bone, adherent) | 0.655 | 0.00568 | 0.86 | > 20 | 0.984 | > 10 | 0.982 | > 10 | 0.761 | 4.05 | 0.859 | 19.9
21 | Ca9-22 (head and neck, adherent) | 0.409 | 0.00115 | 0.979 | > 20 | 0.986 | > 10 | 0.987 | > 10 | 0.902 | > 10.2 | 0.836 | 11.9
22 | Ca-Ski (cervix, adherent) | 0.569 | 0.00316 | 0.862 | > 20 | 0.969 | > 10 | 0.956 | > 10 | 0.512 | 0.694 | 0.642 | 3.25
23 | CaR-1 (large intestine, adherent) | 0.797 | 0.025 | 0.978 | > 20 | 0.975 | > 10 | – | – | 0.912 | > 10.2 | 0.908 | > 20
